Source: PubChem BioAssay AID463173 (ICCB-Longwood Screening Facility, Harvard Medical School, 2010)
In all, about 52,000 compounds went through this assay and about 4,300 (8.3%) were called active. Rule as the data show it: active = survival mostly below about 52% (no sharp cut-off); inactive = mostly above about 56%. The list shows a part of the results.

System: DeltatarO mutant
Assay: S. aureus survival, RN4220 and DeltatarO strains – OD600, teichoic acid synthesis inhibitors, primary screen (AID 463173)
Details: S. aureus RN4220 wild type/DeltatarO growth, OD600, 18 h, hits give low values, screened at 18.75 µg/mL (by protocol)

SMILES | survival
Cn1c(C(=O)NCc2ccccc2F)cc2cc(S(=O)(=O)N3CCCCC3)ccc21 | inactive: 96%
COc1ccc(NC(=O)CN(C)S(=O)(=O)c2ccc3nc(C)sc3c2)cc1Cl | inactive: 82%
COC(=O)c1sc2cccc(F)c2c1S(=O)(=O)NCc1ccccc1Cl | inactive: 75%
COc1ccc(CCNCc2c(C(=O)O)c(C)n(Cc3cccc(C)c3)c2C)cc1OC | inactive: 96%
Cc1cccc(Nc2nnc(-c3ccc(C)c(S(=O)(=O)N4CCOCC4)c3)c3ccccc23)c1 | inactive: 69%
CCCOc1ccc(C(=O)Nc2ccc(NC(=O)c3ccc(Br)cc3)cc2)cc1 | inactive: 88%
Cn1c(Oc2cccc(Cl)c2)nc2c1c(=O)n(Cc1ccccc1Cl)c(=O)n2C | inactive: 66%
Cc1ccc(NS(=O)(=O)c2ccc3[nH]c4c(c3c2)CCCCCC4)cc1C | active: -1%
O=c1cc(Nc2cccc(Br)c2)[nH]c(=O)[nH]1 | inactive: 68%
CCOc1ccccc1CNC(=O)CCCn1c(=O)c2cccn2c2ccc(F)cc21 | active: 33%
Cc1ccc(CNC(=O)c2cc(NS(=O)(=O)c3ccc(C)cc3)ccn2)cc1 | inactive: 102%
CCOC(=O)c1cc(S(=O)(=O)N(C)c2ccccc2)[nH]n1 | inactive: 118%
CCOc1ccc(S(=O)(=O)Nc2ccc3c(c2)CCCN3S(=O)(=O)c2ccc(C)cc2)cc1 | inactive: 88%
O=C(C1CC1)n1cc(C(=S)N2CCOCC2)c2ccccc21 | inactive: 55%
COc1ccc(OC)c(NC(=O)CSc2nccn2-c2cc(C)cc(C)c2)c1 | inactive: 82%
CC1CC(C)CN(S(=O)(=O)c2ccccc2)C1 (stereo not drawn) | inactive: 71%
CC(=O)Nc1c(C)nn(-c2ccccc2)c1N1CCC(C(=O)Nc2ccc(Cl)cc2C)CC1 | inactive: 109%
COc1cc(NC(=O)CN2C(=O)C(c3ccc(C)cc3)=NC23CCCCCC3)cc(OC)c1 | inactive: 83%
Cc1ccc(-c2nc3ccccc3[nH]2)cc1NC(=O)COc1ccc(Cl)cc1Cl | active: 18%
Cc1cc(O)c(C(c2ccccc2)N2CCN(c3ccccc3F)CC2)c(=O)n1Cc1ccco1 (stereo not drawn) | inactive: 78%
CCC(=O)N1CCc2cc(Br)cc(S(=O)(=O)CCC(=O)NCc3ccc(C)cc3)c21 | inactive: 94%
C=CCNC(=O)CN1CCN(c2ccccc2)CC1 | inactive: 87%

SMILES | survival
COC(=O)c1sc(S(=O)(=O)N2CCN(c3ccc(OC)cc3)CC2)c(C(=O)OC)c1C | inactive: 129%
COc1ccc(CNC(=O)C(=O)Nc2ccccc2OC)cc1 | inactive: 67%
CCN(CC)S(=O)(=O)c1ccc(S(=O)(=O)N2CCN(C)CC2)cc1 | inactive: 90%
COC(=O)c1ccc(NC(=O)CSc2nccn2Cc2ccc(Cl)cc2)cc1 | inactive: 80%
CCOc1ccc(-n2c(=O)c3c(C)c(C)sc3n(Cc3c(F)cccc3Cl)c2=O)cc1 | inactive: 96%
COc1ccc(N2CCN(C(=O)CCc3nnc4n(C)c(=O)c5sccc5n34)CC2)cc1 | inactive: 58%
COc1ccc(-n2c(=O)c3ccc(C(=O)NCc4ccc(C)cc4)cc3n(Cc3ccc(F)cc3Cl)c2=O)cc1 | inactive: 99%
CC1(C)N=C(c2ccc(F)cc2)C(=O)N1CC(=O)Nc1ccccc1Cl | inactive: 95%
CCCC(=O)Nc1nc2c(s1)CC(C(C)(C)C)CC2 (stereo not drawn) | active: 14%
Cc1ccc(Cn2c3ccccc3c3cnn(CC(=O)N4CCCCCC4)c(=O)c32)cc1 | active: 19%
Cc1ccc(CN2C(=O)CC(c3ccc(Cl)cc3)c3c(C)nn(-c4nc(C)cc(C)n4)c32)cc1 (stereo not drawn) | inactive: 75%
COc1ccc(-n2nc3c(c2NC(=O)C(=O)NCc2ccccc2)CSC3)cc1 | inactive: 84%
O=C(Cn1c2ncccc2c(=O)n1-c1ccccc1)Nc1cccc(C(F)(F)F)c1 | inactive: 67%
COc1cccc(-c2nc(S(=O)(=O)c3ccc(C)cc3)c(NCc3ccccc3)o2)c1 | inactive: 152%
COc1ccc(CN=C(N)N=C(N)N)cc1 | inactive: 95%
COc1ccc(N2C(=O)CS(=O)(=O)C23C(=O)N(Cc2ccccc2)c2ccccc23)cc1 (stereo not drawn) | inactive: 76%
Clc1cccc(N2CCN(c3nc4ccccc4c4nc(-c5ccccc5)nn34)CC2)c1 | inactive: 85%
CCOc1ccc(-c2nc(CSCC(=O)NCCc3ccccc3)c(C)o2)cc1 | inactive: 55%
CCN1CCN(c2cc(C)c3cc(NC(=O)c4cc(OC)c(OC)c(OC)c4)ccc3n2)CC1 | inactive: 78%
COc1cccc(CNC(=O)CCCn2c(=O)c3cccn3c3ccc(F)cc32)c1OC | active: 43%
Cc1cc(C)cc(NC(=O)Cn2c(=O)n(CCC(C)C)c(=O)c3cccnc32)c1 | inactive: 73%
CCN(CC)C(C(=O)O)c1ccccc1 (stereo not drawn) | inactive: 98%

SMILES | survival
CCc1ccc2oc(C(=O)N(Cc3cccc(Cl)c3)Cc3ccco3)c(C)c2c1 | inactive: 53%
Cn1c(=O)cc(SCC(=O)NCCc2ccc(Cl)cc2)c2cc(Cl)ccc21 | inactive: 75%
Cc1cccc(-c2nc3c4ccccc4n(CC(=O)Nc4cccc(F)c4)c(=O)n3n2)c1 | inactive: 95%
CC(C)(C)OC(=O)N1CCC(c2c(C(=O)N3CCN(c4ccccc4F)CC3)cnn2C(C)(C)C)CC1 | inactive: 68%
CCOC(=O)C1CCN(c2csc3ccc(C)cc3c2=O)CC1 | inactive: 85%
COC(=O)c1cc2sc(C)cc2n1Cc1nc(-c2cccc(Br)c2)oc1C | inactive: 88%
Cc1ccc(NC(=O)c2nc[nH]c2C(=O)N2CCCCC2)c(C(=O)c2ccccc2)c1 | inactive: 82%
CCc1cccc(NC(=O)Cn2c(=O)n(Cc3ccccc3)c(=O)c3c(C)c(C(=O)N(C)C)sc32)c1 | inactive: 71%
CCOc1ccccc1N(C)C(=O)c1cc(S(=O)(=O)NCc2ccc(C)cc2)ccc1F | inactive: 105%
CN1CCN(C(=O)c2cnn(-c3ccccc3)c2C2CCN(C(=O)OC(C)(C)C)CC2)CC1 | inactive: 107%
CCc1nnc(SC(CC)C(=O)NCCOC)c2cc3occc3n12 (stereo not drawn) | inactive: 107%
CCc1nn2c(=O)cc(COC(=O)c3cccc(NC(=O)COc4ccccc4F)c3)nc2s1 | inactive: 102%
COc1ccc(Cl)cc1NC(=O)c1cc(=O)c2cc(C)cc(C)c2o1 | inactive: 59%
CCCC(c1nnnn1C(C)(C)C)N(Cc1ccco1)Cc1cc2ccc(C)cc2[nH]c1=O (stereo not drawn) | inactive: 83%
Cc1ccc(C)c(NC(=O)Cn2cc(S(=O)(=O)N3CCCC3)c(S(=O)(=O)N3CCCC3)c2)c1 | inactive: 94%
Cc1cccc(NC(=O)CSc2nc(C)cc(C)c2C(=O)Nc2ccc(Cl)cc2)c1 | inactive: 44%
CCC(=O)C1=C(c2cccc([N+](=O)[O-])c2)N(C(=O)CC)n2c(nnc2C2CCCCC2)S1 | inactive: 91%
CCc1ccc2c(c1)c(=O)c(S(=O)(=O)c1ccccc1)cn2CC(=O)Nc1cc(C)ccc1C | inactive: 72%
Cc1ccc(CCNC(=O)Cn2ncc3c(=O)oc4ccccc4c32)cc1 | inactive: 117%
Cc1ccccc1-c1nc(CS(=O)(=O)CC(=O)Nc2c(C)cccc2C)c(C)o1 | inactive: 92%
CC(CNC(=O)c1ccc2nc(CCc3ccccc3)oc2c1)c1ccccc1 (stereo not drawn) | inactive: 70%
COc1ccc(NC(=O)c2ncoc2-c2ccco2)cc1Cl | inactive: 86%

SMILES | survival
CCOC(=O)c1cccc(NC(=O)C2CCN(S(=O)(=O)c3c(C)noc3/C=C/c3ccc(C)cc3)CC2)c1 | inactive: 86%
O=C(Cc1ccccc1)Nc1sc2c(c1C(=O)Nc1ccccc1Cl)CCCC2 | active: 31%
COc1cc(NC(=O)c2nc(-c3ccc(Cl)cc3)n3c2CCCCC3)cc(OC)c1OC | inactive: 70%
Cc1cccc(C(=O)Nc2ccc3nc(SCC(=O)N4CCc5ccccc54)sc3c2)c1 | inactive: 113%
COc1ccc(OC)c(-c2nnc3n(CCc4ccccc4)c(=O)c4ccccc4n23)c1 | inactive: 77%
COc1ccc(CNC(=O)Cn2ccc3cc(S(=O)(=O)N4CCCC4)ccc32)c(OC)c1 | inactive: 72%
CCn1c(=O)n(-c2ccc3c(c2)OCO3)c2nc(-c3cc(OC)ccc3OC)nc(C(N)=O)c21 | inactive: 88%
COc1ccc(CNC(=O)c2cc(C3CC3)nc3c2c(C)nn3-c2cccc(Cl)c2C)cc1 | inactive: 98%
Cc1cc(/C=C(\C#N)C(=O)Nc2ccccc2)c(C)n1-c1ccc(F)cc1 | inactive: 59%
COC(=O)c1ccccc1NC(=O)c1sc2nc(C)cc(C)c2c1NC(=O)c1ccccc1Cl | inactive: 57%
COc1ccc(NC(=O)CN2CCC(N3CCCCC3)CC2)c(OC)c1 | inactive: 58%
COc1ccc(NC(=O)c2cc(C(C)=O)n3ccccc23)cc1Cl | inactive: 85%
Cc1ccc(C)c(Nc2nn3c(=O)c4ccc(C(=O)N(C)Cc5ccccc5)cc4nc3s2)c1 | inactive: 129%
S=c1n(-c2ccccc2)cnn1CN1CCCCC1 | inactive: 76%
COc1ccc(CNC(=O)c2ccc(NC(=O)N3CCSc4ncccc43)cc2)c(OC)c1 | inactive: 81%
CCOc1ccc2oc(=O)cc(CN3CCN(C(=O)c4cccc(Cl)c4)CC3)c2c1 | inactive: 66%
Cc1cnc(C(=O)Nc2ccc(N3CCN(C(=O)OC(C)(C)C)CC3)cc2)cn1 | inactive: 91%
CC(=O)N1CCCn2c1nc1ccccc12 | inactive: 92%
CCCCCCCc1nnc(NC(=O)c2cccs2)s1 | inactive: 82%
O=C(NCc1ccccc1F)c1cc2ccccn2n1 | inactive: 71%
CCc1ccc(N2CC(C(=O)O)CC2=O)cc1 (stereo not drawn) | inactive: 100%
CCN(CC)C(=O)Cn1c(=O)n(CCCCCC(=O)Nc2ccccc2)c(=O)c2sccc21 | inactive: 82%
